Drawing on the RNAGym collection of RNA variant scans (doi:10.7554/elife.90254), this text covers self-cleavage for 56 variants.

To fix the notation:
B1: LINE1-mini (parent)
chain: GGCAGAGCUCAACACAGCGUGGCAAAGUGGCUGUGGCUAGACUGCC

Read counts are not given, so values of variants with three or more changes are uncertain.

Variants of B1 are the subject of the series. Put plainly: self-cleavage, relative activity (ratio to wild type); higher = more cleavage; in vitro, sequencing; the parent is a self-cleaving ribozyme.
Consider GGCAGAGCUGAACACAGCAUGGCAAAGUUGCUGUGGCGAGACUGCC [C10G G19A G29U U38G], for which the self-cleavage came to 0.09.

On to GGCAGAGCUUUACACAGCGUGGCAAAGUGGCUAUGGCUAGACUGCC [C10U A11U G33A], for which the self-cleavage was 0.06.

In the case of GGCAGAGCUUGACACAGCGUGGCAAAGUGGAUGUGGCUAGACUGCC [C10U A11G C31A], the self-cleavage is 0.01.

For the variant GGCAGAGCUGAACACAGCGUCGAAAAGUGGCUGUGGCUAGUCUGCA [C10G G21C C23A A41U C46A], the self-cleavage was 0.02.

On to GGCAGAGCUGAACACAGCGUGGCAAAAUGGCUUUGGCGAGACUGCC [C10G G27A G33U U38G], for which the self-cleavage amounted to 0.01.

GGCAGAGCUGAACACAGCGUGGCAAAGUUUCUGUGGCUAGACUGCC [C10G G29U G30U]: the self-cleavage is 0.08.

Consider GGCAGAGCUUACCACAGCGUGGAAAAGUGGCUGUGGCUACACUGCC [C10U A12C C23A G40C], for which the self-cleavage is 0.01.

GGCAGAGCUGAACACAGCGUUGUAAAGUGGCUGUGGCUAGACUGAC [C10G G21U C23U C45A]: the self-cleavage was 0.06.

On to GGCAGAGCUUCACACUGCGUGGCAAAGUGGUUGUGGCUAGACUGCC [C10U A11C A16U C31U], for which the self-cleavage is 0.01.

Consider GGCAGAGCUUGACACAGCGUGGCAAAAUGGCUGUGGCUAGUCUGCC [C10U A11G G27A A41U], for which the self-cleavage is 0.01.

On to GGCAGAGCUGAACACAGCAUGGCAAAGUGGCUGUGGCUAAACUGCC [C10G G19A G40A], for which the self-cleavage was 0.

Consider GGCAGAGCUGAACACAGCGUGGCAAAGAUGCGGUGGCUAGAAUGCC [C10G U28A G29U U32G C42A], for which the self-cleavage was determined as 0.01.

In the case of GGCAGAGCUGAACACAGCGUGGCAAAGUGGCUGAGGCUAGACUGCG [C10G U34A C46G], the self-cleavage is 0.01.

Regarding GGCAGAGCUGAACACAGCCUGGCAAAGUGGCUGUAGCUAGAGUGCC [C10G G19C G35A C42G], the self-cleavage came to 0.01.

In the case of GGCAGAGCUGAACACAGCGUGGCAAAGUGGCGGUCGCUAGACUGCC [C10G U32G G35C], the self-cleavage came out at 0.02.

Regarding GGCAGAGCUGAACACAGCGUGACAAACUGGCUGUGGCUAGACUGCC [C10G G22A G27C], the self-cleavage worked out at 0.06.

Consider GGCAGAGCUGAACACAGCGUGGCAAAGUGGCUGCGGUUAGACUGCC [C10G U34C C37U], for which the self-cleavage is 0.01.

For the variant GGCAGAGCUGAACACAGCGUUGGAAUGUGGCUGUGGCUAGACUGCC [C10G G21U C23G A26U], the self-cleavage was found to be 0.1.

As for GGCAGAGCUGAACACAGCGUGGCAAAGAGGUUGUGGCUAGACUGCC [C10G U28A C31U], the self-cleavage was 0.01.

Turning to GGCAGAGCUGAACACAUCGUGGCAAAGUGGCUGUAGCUAGACUGCC [C10G G17U G35A], the self-cleavage was found to be 0.01.

Regarding GGCAGAGCUUUACACAGCCUGGCAAAGUGGCUGUGCGUAGACUGCC [C10U A11U G19C G36C C37G], the self-cleavage was 0.01.

GGCAGAGCUGAACACAGCAUUGCAAAGACGCUGUGGGUAGACUGCC [C10G G19A G21U U28A G29C C37G]: the self-cleavage is 0.

GGCAGAGCUUGACACAGCGUGGUAAAGUGGCUGUGACUAGACUGCC [C10U A11G C23U G36A]: the self-cleavage was 0.01.

Regarding GGCAGAGCUUGAACCGGCGUGGCAAAGUGGCUGUGGCUAGACUGCC [C10U A11G C13A A14C A16G], the self-cleavage amounted to 0.04.

For the variant GGCAGAGCUGAACACAGCGGGGCAAAGUGGCUGUGGCAAGACUGCC [C10G U20G U38A], the self-cleavage amounted to 0.

On to GGCAGAGCUGAACACAGCGGGGCAAAGUGGCUGUGGCGAGACUGCC [C10G U20G U38G], for which the self-cleavage is 0.

GGCAGAGCUUCACACAGCAUGGCAAAGUGCCUGUGGCUAGACUGCC [C10U A11C G19A G30C]: the self-cleavage came to 0.04.

As for GGCAGAGCUGAACACAGCGUGGCAAAGUGGCUGUGUCUUGACUGCC [C10G G36U A39U], the self-cleavage was found to be 0.

With GGCAGAGCUGAACACAGCGUGGCAAAAUGGCAGUCUCUAGACUGCC [C10G G27A U32A G35C G36U], the self-cleavage was 0.01.

For GGCAGAGCUUCACAUAGAGUGGCAAAUUGGCUGUGGCUAGACUGCC [C10U A11C C15U C18A G27U], the self-cleavage worked out at 0.01.

As to GGCAGAGCUGAACACAGCGUGGCAAAGUGGCUUUGGCUAGACUGAC [C10G G33U C45A], the self-cleavage amounted to 0.01.

With GGCAGAGCUUUACCCAGCGUGGCAAAGUGGUUGUGGCUAGCCUGGC [C10U A11U A14C C31U A41C C45G], the self-cleavage amounted to 0.01.

For the variant GGCAGAGCUUGACACAGCGUGGCAAAGUGGCUGUGGCUAUACUGCC [C10U A11G G40U], the self-cleavage came to 0.01.

For GGCAGAGCUGAACACAGCGUGGCAAAGUGGCUGUGCCUUGACUGCC [C10G G36C A39U], the self-cleavage is 0.03.

GGCAGAGCUGAACACAGCGUGGCAAAGUAGCCGUGGCUAGAUUGCC [C10G G29A U32C C42U]: the self-cleavage was 0.01.

As to GGCAGAGCUGAACACAGCGUGGCAAAAUGGCUGUGGCUCGACUGCC [C10G G27A A39C], the self-cleavage turned out to be 0.02.

Regarding GGCAGAGCUGAACACAGCGCGGCAAAGUGGCUGUGGCUACACUGCC [C10G U20C G40C], the self-cleavage was 0.02.

Turning to GGCAGAGCUGAACACAGCGUGGCAAAUUGGCGGUGGCUAGACUGCC [C10G G27U U32G], the self-cleavage is 0.05.

Consider GGCAGAGCUGAACACAGCGUGGCAAAGUGUCUGUGUCUAGACUGCC [C10G G30U G36U], for which the self-cleavage was 0.01.

Turning to GGCAGAGCUUACCACAGCGUGGAAAAGUGGUUGUGGCUAGAAUGCC [C10U A12C C23A C31U C42A], the self-cleavage is 0.01.

Take GGCAGAGCUGAACACAGCAUGGCAAAUUGGCUGUGGCUGGACUGCC [C10G G19A G27U A39G]: the self-cleavage came to 0.01.

On to GGCAGAGCUGAACACAGCGUCGCAAAGUGGCUGUGGCUUGACUGCC [C10G G21C A39U], for which the self-cleavage was 0.08.

As for GGCAGAGCUUACCACAGCGUGGCAAAUUGGCUGUGGCGAGACUGCC [C10U A12C G27U U38G], the self-cleavage was 0.01.

GGCAGAGCUGAACACAGCGUGACAAAGCGGCUGUGGCUAGACUGCC [C10G G22A U28C]: the self-cleavage came out at 0.03.

As for GGCAGAGCUGAACACAGCGUGGCAAAUUGGCUGUGGCUGGUCUGCC [C10G G27U A39G A41U], the self-cleavage came to 0.01.

As for GGCAGAGCUGAACACAGCGUGGCAAAGUGCCUGUAGCUAGACUGCC [C10G G30C G35A], the self-cleavage was found to be 0.

As to GGCAGAGCUGAACACAGCCUGGCAAAGUGGGUGUAGCUAGAUUGCC [C10G G19C C31G G35A C42U], the self-cleavage came to 0.

GGCAGAGCUGAACACAGCGUUGCAGAGUGGCUAUGGCUAGAUUGCC [C10G G21U A25G G33A C42U]: the self-cleavage was determined as 0.01.

For GGCAGAGCUGAACACAGCGUGGCAAAGUUGCUGUGGCUAGCCUGCC [C10G G29U A41C], the self-cleavage was found to be 0.01.

As to GGCAGAGCUGAACACAGCAUGGCAUAGUGGCUGUGGCUAGACUGCC [C10G G19A A25U], the self-cleavage is 0.21.

Consider GGCAGAGCUGAACACAGCGUUGUAAAGUGGCUGUGGCUAGACUGCC [C10G G21U C23U], for which the self-cleavage was determined as 0.28.

Regarding GGCAGAGCUGAACACAGCGUCGCAUACUGGCUGUGGCUAGACUGCC [C10G G21C A25U G27C], the self-cleavage turned out to be 0.02.

Consider GGCAGAGCUGAACACAGCGUUGCAAAGUUGCUGUGGCUAGCCUGCC [C10G G21U G29U A41C], for which the self-cleavage is 0.02.

In the case of GGCAGAGCUGAACACAGCGUUGCAAAGUGGCGGUGGCUAGACUGGA [C10G G21U U32G C45G C46A], the self-cleavage stood at 0.

GGCAGAGCUGAACACAGCGUGGCAAAGUGGCUGUUGCUAGAAUGCC [C10G G35U C42A]: the self-cleavage came out at 0.

In the case of GGCAGAGCUGAACACAUCGUGGCAAAGAGGCUGUGGCUAGACUGCC [C10G G17U U28A], the self-cleavage was determined as 0.05.
